{
  "source": "PubChem BioAssay AID1671188",
  "about": "(National Center for Advancing Translational Sciences (NCATS), 2021)",
  "note": "Where “and” joins values, the source holds several entries; their conditions need not be identical. Equal values may be shown once. Out of some 100,000 compounds screened, about 250 (0.25%) were called active. This list was built around the results that the source calls inconclusive (neither active nor inactive); the mix of calls is not that of the screen. Calls follow the shape of the dose curve; as a rule, active = well fitted inhibition curve with a large enough effect; inconclusive = small, poorly fitted or top-dose-only effect; inactive = flat fitted curve, though single readings scatter. A potency beside an inconclusive call is a rough fit, not a confirmed value. % is scaled to controls: 0 for no effect and ±100 for the full control effect; potency is read from the fitted curve at half-maximal effect; tags tell the direction and shape of the fitted curve.",
  "data": [
    {"target": "Alanine aminotransferase 2 (Homo sapiens) (UniProt Q8TD30)", "sequence (Q8TD30 whole entry, looked up)": "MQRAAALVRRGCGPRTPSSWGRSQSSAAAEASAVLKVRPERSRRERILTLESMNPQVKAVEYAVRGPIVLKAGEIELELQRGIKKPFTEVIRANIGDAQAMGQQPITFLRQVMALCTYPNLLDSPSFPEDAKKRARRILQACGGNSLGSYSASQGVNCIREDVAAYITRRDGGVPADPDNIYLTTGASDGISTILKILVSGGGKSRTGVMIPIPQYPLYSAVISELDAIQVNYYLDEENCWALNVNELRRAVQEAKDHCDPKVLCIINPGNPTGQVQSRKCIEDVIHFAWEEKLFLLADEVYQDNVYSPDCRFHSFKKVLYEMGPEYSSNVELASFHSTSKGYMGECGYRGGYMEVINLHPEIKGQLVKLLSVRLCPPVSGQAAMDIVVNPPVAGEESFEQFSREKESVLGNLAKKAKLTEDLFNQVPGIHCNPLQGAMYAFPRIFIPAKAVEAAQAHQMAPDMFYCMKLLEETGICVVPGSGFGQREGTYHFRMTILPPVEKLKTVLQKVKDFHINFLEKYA", "assay": "Primary qHTS assay for inhibitors of Glutamate pyruvate transaminase 2 (GPT2); also: nearly all actives have a fitted effect of over 60% in size", "conditions": "Recombinant GPT2, coupled pyruvate oxidase/HRP Amplex Red fluorescence; activity change, negative = inhibition: at 57.7 µM (top of the series) unless noted; series mostly up to 57.7 µM", "method_in_brief": "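Inhibition is scored from Amplex Red fluorescence generated when pyruvate oxidase and HRP act on pyruvate released by GPT2. Reactions contain 10ng/uL enzyme, 250uM a-KG and 2mM L-alanine and run 30 min at room temperature.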", "values": [
      {"smiles": "CCC(=O)Nc1cc(-c2ccncc2)nn1-c1ccccc1", "Potency": "inactive"},
      {"smiles": "O=C(CC1CCCC1)N1CCCCCC1c1nc(-c2cccnc2)no1", "note": "(stereo not given)", "Potency": "inactive"},
      {"smiles": "CCN1C(=O)CN(C(=O)c2ccsc2)CC12CCOCC2", "Potency": "inconclusive: 39.8 µM [inhibitor, single point]"},
      {"smiles": "COc1cc2ncnc(Nc3ccc(O)c(Br)c3)c2cc1OC", "Potency": "inconclusive: 31.6 µM [inhibitor, single point]"},
      {"smiles": "CN(Cc1cc(C[C@@H]2C[C@H](NCc3ccccn3)C2(C)C)no1)c1ccccc1", "Potency": "inconclusive: 12.6 µM [inhibitor, single point]"},
      {"smiles": "CN(C)CC1(O)CCCN(c2ncccc2C(N)=O)CC1", "note": "(stereo not given)", "Potency": "inactive"},
      {"smiles": "OC[C@@H]1CNC[C@H]1C1CCN(Cc2cccc(Cl)c2F)CC1", "Potency": "inactive"},
      {"smiles": "O=C(NCCCc1ccccc1)c1ccc2oc(-c3ccncc3)nc2c1", "Potency": "inconclusive: 35.5 µM [inhibitor, single point]"},
      {"smiles": "CCc1noc(-c2cn(C3CCN(C(=O)c4ccc(OC(F)(F)F)cc4)C3)nn2)n1", "note": "(stereo not given)", "Potency": "inconclusive: 39.8 µM [inhibitor, partial curve, poor fit]"},
      {"smiles": "OC1COC(OCC2OC(OCCc3ccccc3)C(O)C(O)C2O)C(O)C1O", "note": "(stereo not given)", "Potency": "inconclusive: 3.98 µM [inhibitor, single point]"},
      {"smiles": "O=C1NC2(CCN(Cc3ccsc3)CC2)COc2ccccc21", "Potency": "inactive"},
      {"smiles": "CCc1nc(CC)n2ccn(Cc3ccccn3)c(=O)c12", "Potency": "inactive"},
      {"smiles": "Cc1nc(-c2ccc(F)cc2)n(CC(=O)Nc2ccc(F)cc2)c(=O)c1CCO", "Potency": "inconclusive: 6.31 µM [inhibitor, single point]"},
      {"smiles": "COCCN1CC(CO)C2(CCN(Cc3cc(F)c(F)cc3F)CC2)C1", "note": "(stereo not given)", "Potency": "inconclusive: 39.8 µM [inhibitor, single point]"},
      {"smiles": "COC[C@@H]1CN(c2ncccn2)C[C@H]1C(=O)N(C)Cc1cn(C)nc1C", "Potency": "inconclusive: 0.316 µM [inhibitor, full curve, poor fit]"},
      {"smiles": "COc1ccc(Nc2cc(-c3cccs3)nc3c(C)noc23)cc1OC", "Potency": "inconclusive: 1.12 µM [inhibitor, full curve, poor fit]"},
      {"smiles": "CC/C=C/C(O)C(O)C1=C(C)C(=O)C2(O1)C(=O)NC(OC)(C(=O)c1ccccc1)C2O", "note": "(stereo not given)", "Potency": "inconclusive: 2.51 µM [inhibitor, partial curve, poor fit]"},
      {"smiles": "Cc1ccc(C2Cn3nnc(C(=O)N4CCC(C(=O)NC(C)c5ccccc5)CC4)c3CO2)cc1", "note": "(stereo not given)", "Potency": "inactive"},
      {"smiles": "O=C(c1cccc(OC(F)(F)F)c1)N1CCN(c2cc(-c3cccs3)[nH]n2)CC1", "Potency": "inconclusive: 39.8 µM [inhibitor, single point]"},
      {"smiles": "CC(NC(=O)Cc1cccn1-c1cccc(Cl)c1)c1cccnc1", "note": "(stereo not given)", "Potency": "inconclusive: 7.08 µM [inhibitor, single point]"},
      {"smiles": "O=C(N[C@@H]1COCC[C@@H]1OCc1ccccc1)c1ccc2ncsc2c1", "Potency": "inconclusive: 1.26 µM [inhibitor, full curve, poor fit]"},
      {"smiles": "COc1cc(-c2ccnc3ncnn23)cc(OC)c1OC", "Potency": "inconclusive: 6.31 µM [inhibitor, single point]"},
      {"smiles": "CCO[C@H]1CN(C(=O)C(C)(C)Oc2ccc3c(c2)CCC3)C[C@@H]1O", "Potency": "inconclusive: 0.708 µM [inhibitor, full curve, poor fit]"},
      {"smiles": "O=C1NCCCCCN(C(=O)c2cnccn2)[C@H]2CCC[C@@H]12", "Potency": "inconclusive: 35.5 µM [inhibitor, single point]"},
      {"smiles": "COc1cc(Cl)c(C)cc1NC(=O)CN1C(=O)NC2(CCC(C)CC2)C1=O", "note": "(stereo not given)", "Potency": "inconclusive: 6.31 µM [inhibitor, single point]"},
      {"smiles": "COC(=O)C1=C(C)N=C2SC=C(CC(=O)Nc3cc(C)cc(C)c3)N2C1c1ccccc1OC", "note": "(stereo not given)", "Potency": "inconclusive: 39.8 µM [inhibitor, single point]"},
      {"smiles": "O=C(Cc1ccccc1)N1CCC2(CC1)CN(Cc1ccccc1)CC2CO", "note": "(stereo not given)", "Potency": "inconclusive: 0.708 µM [inhibitor, partial curve, poor fit]"},
      {"smiles": "COc1cc(OC)cc(-c2onc(C)c2C(=O)NCc2ccc(F)c(F)c2)c1", "Potency": "inconclusive: 39.8 µM [inhibitor, single point]"},
      {"smiles": "CCOCCNc1cc(Cl)nc2ccnn12", "Potency": "inconclusive: 12.6 µM [inhibitor, single point]"},
      {"smiles": "COCC(=O)NC1CCCN(Cc2cccc(-c3ccc(C)c(Cl)c3)c2)C1", "note": "(stereo not given)", "Potency": "inconclusive: 39.8 µM [inhibitor, single point]"},
      {"smiles": "CS(=O)(=O)N1CCCN(S(=O)(=O)c2ccccc2)CCC(=O)NCC1", "Potency": "inconclusive: 22.4 µM [inhibitor, single point]"},
      {"smiles": "Cc1cccc(C2CN(C)CCc3c2cc(O)c(O)c3Cl)c1", "note": "(stereo not given)", "Potency": "active: 7.08 µM"},
      {"smiles": "COc1cc(CN2CCC(C)(c3noc(C4CCOCC4)n3)CC2)cc(OC)c1", "Potency": "inconclusive: 8.91 µM [inhibitor, single point]"},
      {"smiles": "CC(C)(C)C1CCC2(CC1)NC(=O)N(CC(=O)Nc1ccc(F)cc1F)C2=O", "note": "(stereo not given)", "Potency": "inconclusive: 6.31 µM [inhibitor, single point]"},
      {"smiles": "O=C(N1CCCN(c2cc(-c3ccc(Cl)cc3)[nH]n2)CC1)C1(c2ccccc2)CC1", "Potency": "inconclusive: 39.8 µM [inhibitor, single point]"},
      {"smiles": "Cc1ccc(-c2nnc(C3CN(C(=O)c4ccn[nH]4)CC34CCOCC4)o2)cc1", "note": "(stereo not given)", "Potency": "inconclusive: 6.31 µM [inhibitor, single point]"},
      {"smiles": "CN(C)C[C@@H]1CN(S(C)(=O)=O)C[C@H]1NC(=O)c1ccc(C#N)cc1", "Potency": "inconclusive: 39.8 µM [inhibitor, single point]"},
      {"smiles": "Cc1noc2c(Nc3ccc(N4CCOCC4)cc3)cc(-c3cccs3)nc12", "Potency": "inconclusive: 12.6 µM [inhibitor, partial curve]"},
      {"smiles": "Cc1cc(CNC(=O)[C@@H]2CCC[C@@H](N(C)C)CN(C)C(=O)C2)no1", "Potency": "inactive"},
      {"smiles": "CN(C)CCCOCC1(C)COc2ccc(C(=O)Nc3ccccc3)cc2N1", "note": "(stereo not given)", "Potency": "inconclusive: 56.2 µM [inhibitor, single point]"},
      {"smiles": "O=C(NCc1cc2n(n1)CCCNC2)c1ccc(Cn2cnnn2)cc1", "Potency": "inconclusive: 3.16 µM [inhibitor, full curve, poor fit]"},
      {"smiles": "O=C(C1CCN(S(=O)(=O)N2CCOCC2)CC1)N1CCCC(c2nc(C3CCOCC3)no2)C1", "note": "(stereo not given)", "Potency": "inconclusive: 6.31 µM [inhibitor, single point]"},
      {"smiles": "CN1CCN(C(=O)C2(N(C)CCc3ccccc3)Cc3ccccc3C2)CC1", "activity change, negative = inhibition": "inactive: 3.78% [at 11.5 µM]"},
      {"smiles": "NC[C@H]1O[C@H](O[C@H]2[C@H](O)[C@@H](O[C@H]3O[C@H](CO)[C@@H](O)[C@H](N)[C@H]3O)[C@H](N)C[C@@H]2N)[C@H](N)[C@@H](O)[C@@H]1O", "Potency": "inconclusive: 3.55 µM [inhibitor, single point]"},
      {"smiles": "CCCn1cnnc1CNC(=O)C1(Oc2ccc(Cl)cc2)CCNCC1", "Potency": "inconclusive: 6.31 µM [inhibitor, single point]"},
      {"smiles": "CN(C)C(=O)c1cc2cnc(Nc3ccc(N4CCNCC4)cn3)nc2n1C1CCCC1", "Potency": "inactive"},
      {"smiles": "CCCC(CCC)(C(=O)OCC)C(=O)OCC", "Potency": "inconclusive: 25.1 µM [inhibitor, single point]"},
      {"smiles": "C[C@H]1CC(=O)C2=C(C1)C(O)C(O)[C@@]1(O)[C@H]2C(=O)c2cccc(O)c2[C@@H]1O", "note": "(stereo not given in full)", "Potency": "inconclusive: 28.2 µM [inhibitor, single point]"},
      {"smiles": "COC(=O)c1cccc(NC(=S)N[C@H]2CO[C@H]3[C@@H]2OC[C@@H]3n2nnnc2Oc2ccc3c(c2)OCO3)c1", "Potency": "inactive"},
      {"smiles": "COCCC1(CO)CCCN(C(=O)Cn2cc(C)c(=O)[nH]c2=O)C1", "note": "(stereo not given)", "Potency": "inconclusive: 0.708 µM [inhibitor, full curve, poor fit]"},
      {"smiles": "Cc1ccc(S(=O)(=O)N2CCCC(Cn3c(C)nc4cccnc43)C2)cc1C", "note": "(stereo not given)", "Potency": "inconclusive: 7.08 µM [inhibitor, single point]"},
      {"smiles": "CCN(C)C(=O)C(C)N1CCc2onc(-c3ccc(-c4ccccc4)cc3)c2C1", "note": "(stereo not given)", "Potency": "inconclusive: 12.6 µM [inhibitor, partial curve, poor fit]"},
      {"smiles": "CC[C@@]1(O)C(=O)OCc2c1cc1n(c2=O)Cc2cc3c(CN(C)C)c(O)ccc3nc2-1", "Potency": "inconclusive: 43.2 µM [inhibitor, single point] and inconclusive: 14.1 µM [inhibitor, partial curve]"},
      {"smiles": "Cc1cc(=O)n(CC(=O)Nc2ccc(F)cc2)c(N(C)Cc2ccccc2)n1", "Potency": "inactive"},
      {"smiles": "Cn1cccc1-c1nc(-c2nnn3c2COC(c2ccc(Cl)cc2)C3)no1", "note": "(stereo not given)", "Potency": "inconclusive: 35.5 µM [inhibitor, single point]"},
      {"smiles": "COc1ccc(CNC(=O)[C@@H]2Cc3cn(Cc4cccnc4)c4cccc(c34)[C@H](CC(C)C)N2)cc1", "Potency": "inactive"},
      {"smiles": "Cc1cccnc1CN1CCN(CC2(O)CCNC2)CC1", "note": "(stereo not given)", "Potency": "inconclusive: 0.355 µM [inhibitor, full curve, poor fit]"},
      {"smiles": "Cc1cc(Nc2cc(CN3CCOCC3)c3nc(C)c(Cc4ccc(Cl)cc4F)n3n2)n[nH]1", "Potency": "inconclusive: 39.8 µM [inhibitor, single point]"},
      {"smiles": "CO[C@H]1/C=C\\O[C@@]2(C)Oc3c(C)c(O)c4c(O)c(c5c(nc6cc(C)ccn65)c4c3C2=O)NC(=O)C(C)=CC=C[C@H](C)[C@H](O)[C@@H](C)[C@@H](O)[C@@H](C)[C@H](OC(C)=O)[C@H]1C", "Potency": "inconclusive: 6.85 µM [inhibitor, partial curve, poor fit]"},
      {"smiles": "Cc1ccc(C(=O)N2C[C@@H](CO)[C@H](c3nc(C4CC4)no3)C2)nc1", "Potency": "inconclusive: 0.631 µM [inhibitor, full curve, poor fit]"}
    ]}
  ]
}
